Test results as given in PubChem BioAssay (NCATS).
Several values for one entry are separate records, joined by “and”; a condition that tells them apart may be missing. Identical values can stand only once. Inconclusive means that the source gave no clear call. Such entries were picked first, then a sample of the others. For some of these results: No potency is given beside an inconclusive call; the fits are too rough. For some of these results: A note “side channel” means that the fit belongs to a control or component signal, not to the main read-out. Activity calls are given as the source filed them. Unless noted, the call rests on the fitted dose curve; in most records, active means well fitted curve in the direction sought with a large enough effect; inconclusive means small, poorly fitted or top-dose-only effect, or another doubt; inactive means no such curve, though single readings can be large; an effect the other way counts as inactive or inconclusive.

Assays:
[1] = target: Glucocorticoid receptor (Homo sapiens) (UniProt P04150); assay: qHTS assay for small molecule antagonists of glucocorticoid receptor signaling (AID 588533; active means well fitted inhibition curve with a large enough effect in the signal ratio, with a control signal flat, not every such curve was filed as active; inconclusive means small, poorly fitted or top-dose-only effect, or effect the other way, or a change in a side signal; the % refers to the signal ratio;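 further: cells stimulated with 2 nM dexamethasone as agonist; on the % scale 0 is the no-effect control and ±100 the full control effect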); conditions: HeLa MMTV-bla, GRE beta-lactamase ratio, antagonist mode, 18 h; activity change, negative = inhibition: at 76.8 µM (top of the series)
[2] = target: Peroxisome proliferator-activated receptor gamma (Homo sapiens) (UniProt P37231); assay: qHTS assay for small molecule agonists of peroxisome proliferator-activated receptor gamma signaling (AID 588536; active means well fitted curve in the direction sought with a large enough effect in the signal ratio, with a control signal flat, not every such curve was filed as active; inconclusive means small, poorly fitted or top-dose-only effect, or effect the other way, or a change in a side signal; inactive means no such curve, though single readings can be large or run the other way; the % refers to the signal ratio;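 further: 0% = DMSO basal wells and 100% = rosiglitazone at 2 µM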); conditions: HEK293 PPARg-UAS-bla, beta-lactamase ratio, 16 h; activation: at 76.7 µM (top of the series), percent of rosiglitazone response, DMSO as zero
How it was run: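 HEK293 UAS-bla reporter line, 1% charcoal/dextran FBS; titration, 16 h, 37 C; CCF4 loading 2 h RT; fluorescence 460/530 nm. Normalized to rosiglitazone 2 uM = 100%, DMSO = 0%.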

[3] = target: Retinoic acid receptor RXR-alpha (Homo sapiens) (UniProt P19793); assay: qHTS assay for small molecule agonists of retinoid X receptor alpha signaling (AID 588544; calls by dose curve;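 further: 0% = DMSO basal wells and 100% = reference agonist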); conditions: HEK293T RXRa-UAS-bla, beta-lactamase reporter, 18 h; activation: at 76.7 µM (top of the series)
[4] = target: Mitogen-activated protein kinase 10 (Mus musculus) (UniProt Q61831); assay: JNK3 AlphaScreen Assay (AID 530; active means well fitted curve in either direction with a large enough effect, not every such curve was filed as active; inconclusive means small, poorly fitted or top-dose-only effect, or another doubt;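 further: kinase came from lysate of stimulated human HepG2 cells; signal reports phosphorylation of biotinylated GST-cJun 1-79 at Ser73 with 10 µM ATP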; further: potency means the concentration at half of the fitted maximal effect; on activity change, negative = inhibition: on the % scale 0 is the no-effect control and ±100 the full control effect); conditions: JNK3 lysate, c-Jun phosphorylation; activity change, negative = inhibition: at 57.1 µM (top of the series)
How it was run: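 Room-temperature AlphaScreen kinase assay; pre-activated HepG2 lysate as JNK3 source, biotin-GST-cJun(1-79) substrate, 10 uM ATP, compound 15 min preincubation.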

[5] = target: Peroxisome proliferator-activated receptor delta (Homo sapiens) (UniProt Q03181); assay: qHTS assay for small molecule antagonists of peroxisome proliferator-activated receptor delta signaling (AID 588535; active means well fitted inhibition curve with a large enough effect in the signal ratio, with a control signal flat, not every such curve was filed as active; inconclusive means small, poorly fitted or top-dose-only effect, or effect the other way, or a change in a side signal; inactive means no such curve, though single readings can be large or run the other way; the % refers to the signal ratio; further: potency means the concentration at half of the fitted maximal effect); conditions: HEK293T PPARd-UAS-bla, beta-lactamase FRET ratio, 18 h; activity change, negative = inhibition: at 76.7 µM (top of the series)
How it was run: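 Cell-based beta-lactamase assay in antagonist mode: 4000 HEK293T PPAR-delta-UAS-bla cells per well, 5 hr preincubation then 18 hr compound incubation at 37 C. IC50 obtained by Hill equation fitting.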

[6] = qHTS assay for small molecule agonists of the antioxidant response element (ARE) signaling pathway (AID 651741; active means well fitted activation curve with a large enough effect in the signal ratio; inconclusive means small, poorly fitted or top-dose-only effect, or effect the other way, or a change in a side signal; the % refers to the signal ratio; further: % of control where 0% means no effect); conditions: HepG2 ARE-bla reporter, beta-lactamase FRET ratio, 16 h; activation: at 96 µM (top of the series)
How it was run: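 Seeding 2,000 ARE-bla HepG2 cells per well preceded a 5 h incubation at 37 C/5% CO2 and a 16 h compound exposure at 37 C. Beta-lactamase reporter activity was then quantified by fluorescence after 2 h with LiveBLAzer B/G FRET substrate.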

[7] = qHTS of pediatric cancer cell lines to identify multiple opportunities for drug repurposing: Primary screen for SJ-GBM2 cells (AID 1347091);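 further: plate controls were DMSO neutral control for no effect and bortezomib for full effect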
How it was run: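 Cell viability, CellTiter-Glo luminescence; 500-1,000 cells/well, 8- or 11-point titration, 48 h compound exposure at 37 degrees C, 5% CO2. Controls: DMSO neutral, bortezomib 2.3 µM final as positive.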

[8] = qHTS of pediatric cancer cell lines to identify multiple opportunities for drug repurposing: Primary screen for A673 cells (AID 1347092); conditions: A673 Ewing sarcoma viability, CellTiter-Glo ATP luminescence, 48 h; activity change, negative = cytotoxic: at 46 µM (top of the series); further: on the % scale 0 is the no-effect control and ±100 the full control effect; nearly all actives have a fitted effect of over 45% in size
How it was run: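 Luminescence from CellTiter-Glo, taken after 15 min at room temperature, served as the proxy for metabolically active cells following 48 h treatment. Both potency and efficacy were taken from curves fitted to the titration data.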

[9] = qHTS of pediatric cancer cell lines to identify multiple opportunities for drug repurposing: Primary screen for Rh41 cells (AID 1347108);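 further: luminescence drop marks cytotoxic hits; nearly all actives have a fitted effect of over 70% in size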
How it was run: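 Cells seeded at 500-1,000 cells/well in growth media, rested 5 hours at 37 degrees C, 5% CO2, then dosed; MIPE compounds at 11-point (from 0.78 nM) and NPC at 8-point (from 0.59 nM) final concentrations. Viability by CellTiter-Glo luminescence after 48 hours.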

[10] = qHTS of pediatric cancer cell lines to identify multiple opportunities for drug repurposing: Primary screen for Rh18 cells (AID 1347102); further: nearly all actives have a fitted effect of over 65% in size; further: potency means the concentration at half of the fitted maximal effect; on activity change, negative = cytotoxic: on the % scale 0 is the no-effect control and ±100 the full control effect
How it was run: (§1)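 Cells (500-1,000/well) rested 5 h, then received compounds for 48 h; metabolically active cells were measured by CellTiter-Glo luminescence. Final concentrations spanned up to 46 µM (MIPE, 11-point) or 0.59 nM-46 µM (NPC, 8-point) in primary screens, 11-point in follow-ups.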

[11] = qHTS of pediatric cancer cell lines to identify multiple opportunities for drug repurposing: Primary screen for OHS-50 cells (AID 1347103); conditions: OHS-50 osteosarcoma viability, CellTiter-Glo luminescence, 48 h; activity change, negative = cytotoxic: at 57.3 µM (top of the series); further: nearly all actives have a fitted effect of over 40% in size; further: potency means the concentration at half of the fitted maximal effect;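 on activity change, negative = cytotoxic: plate controls were DMSO neutral control for no effect and bortezomib positive control for full effect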
How it was run: as §1

[12] = A High-Content qHTS Against Drug Library for the Identification of Small Molecules that Inhibit DYT1 Early Onset Primary Dystonia-Associated Cell Pathology (AID 1645839; calls by dose curve)
How it was run: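 In this high-content image screen, delE TorsinA mislocalization in inducible Flp-In 293 cells is scored as %pathology, with cell count serving as the counterscreen. Compound exposure lasts 48 h under tetracycline induction in reduced-serum medium.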

[13] = qHTS Assay for Lipid Storage Modulators (AID 1519; calls by dose curve; further: on the % scale 0 is the no-effect control and ±100 the full control effect); conditions: Drosophila S3 cells, BODIPY lipid droplet/cell ratio, laser cytometry, cells loaded with oleic acid; activity change, negative = inhibition: at 57.5 µM (top of the series) unless noted
How it was run: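 Cells seeded at 5,000 per well were treated with compounds over a concentration series and loaded with oleic acid (400 uM, as added). Lipid droplet fluorescence (488 nm excitation, 500-530 nm channel) was read by laser-scanning cytometry and normalized to 20 uM Triacsin C.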

[14] = qHTS Assay for Identifying Gametocytocidal Compounds (AID 743244); further: potency means the concentration at half of the fitted maximal effect;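 on max response: on the % scale 0 is the no-effect control and ±100 the full control effect; actives lower the fluorescent signal which means gametocytes are killed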; conditions: P. falciparum 3D7 stage III-V gametocytes, alamarBlue, 72 h; max response: hits give low values
How it was run: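 In this qHTS viability screen, late-stage 3D7 gametocytes are incubated with compound for 72 h, then with alamarBlue for 24 h; reduced resorufin fluorescence marks killing.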

[15] = target: Cytochrome P450 2D6 (Homo sapiens) (UniProt P10635); assay: qHTS for inhibitors of CYP2D6 against the NCATS DSHEA and TCM libraries (AID 1919972); further: potency means the concentration at half of the fitted maximal effect
How it was run: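 Steps: enzyme plus luciferin substrate dispensed; test substances pinned; 15 min RT; 1x NADPH regenerating solution added, 30–45 min RT protected from light; detection reagent, 30 min RT; luminescence measured. Minus-enzyme wells as background.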

[16] = qHTS for differential inhibitors of proliferation of Plasmodium falciparum line 3D7 (AID 1876); further: potency means the concentration at half of the fitted maximal effect
[17] = qHTS Assay for Identification of Small Molecule Antagonists for Thrombopoietin (TPO) Signaling Pathway (AID 918); conditions: TPO-dependent cell signaling reporter, antagonist mode; activity change, negative = inhibition: at 38.5 µM (top of the series); further: nearly all actives have a fitted effect of over 60% in size
How it was run: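 First, Ba/F3 reporter cells expressing human TPO receptor were held overnight without IL-3. Next, compound and 26 pM TPO were added. After 24 hrs incubation at 37 C, luciferase luminescence under the Glycoprotein IIb promoter was recorded.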

[18] = qHTS of pediatric cancer cell lines to identify multiple opportunities for drug repurposing: Primary screen for SK-N-MC cells (AID 1347093); conditions: SK-N-MC viability, CellTiter-Glo luminescence, 48 h; activity change, negative = cytotoxic: at 46 µM (top of the series);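 further: plate controls were DMSO neutral control for no effect and bortezomib for full effect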
How it was run: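 Metabolically active cells were quantified by ATP-dependent luminescence (CellTiter-Glo, 15 min at room temperature) following 48 h treatment. Cells had been plated at 500-1,000 per well and settled for 5 h beforehand.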

[19] = target: Cytochrome P450 3A4 (Homo sapiens) (UniProt P08684); assay: Cytochrome P450 family 3 subfamily A member 4 (CYP3A4) small molecule antagonists: luciferase qHTS assay (AID 1645841; active means well fitted curve in the direction sought with a large enough effect in the repeat runs; inconclusive means weak or mixed curves; inactive means no such curve, though single readings can be large; an effect the other way counts as inactive or inconclusive; further: potency means the concentration at half of the fitted maximal effect; nearly all actives have a fitted effect of over 45% in size)
How it was run: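 Luminescent CYP3A4 activity readout: compounds plus enzyme-substrate mix 10 min at room temperature, reaction started with NADPH regenerating system for 1 h, stopped with detection reagent, read after 20 min. Ketoconazole served as control.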

[20] = test system: AA1029; assay: qHTS profiling for inhibitors of Plasmodium falciparum proliferation (AID 504749); further: potency means the concentration at half of the fitted maximal effect; nearly all actives have a fitted effect of over 60% in size; conditions: P. falciparum in erythrocytes, SYBR Green DNA, 72 h; series mostly up to 28.7 µM
How it was run: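 Three-day growth assay of blood-stage parasites in erythrocytes (0.3% parasitemia, 2.5% hematocrit) at 37 C, 5% CO2, quantified by SYBR Green DNA staining after overnight detergent lysis.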
Tags describe the fitted curve by direction and shape or compound fluorescence and quenching.

Chain of UniProt P19793 (P19793 whole entry, looked up): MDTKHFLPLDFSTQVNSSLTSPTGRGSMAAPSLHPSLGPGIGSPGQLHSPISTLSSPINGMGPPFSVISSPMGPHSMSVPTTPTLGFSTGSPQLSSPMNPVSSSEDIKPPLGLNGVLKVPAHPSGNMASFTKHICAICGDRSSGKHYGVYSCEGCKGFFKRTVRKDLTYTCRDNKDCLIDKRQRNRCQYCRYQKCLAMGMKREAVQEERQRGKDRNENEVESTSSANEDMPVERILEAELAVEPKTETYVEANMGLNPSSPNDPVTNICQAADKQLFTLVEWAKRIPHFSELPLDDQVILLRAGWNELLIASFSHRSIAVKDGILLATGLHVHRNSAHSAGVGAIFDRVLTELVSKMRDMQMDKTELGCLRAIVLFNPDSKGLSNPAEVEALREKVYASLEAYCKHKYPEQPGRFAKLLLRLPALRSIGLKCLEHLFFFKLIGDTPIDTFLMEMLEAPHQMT
Chain of UniProt P37231 (P37231 whole entry, looked up): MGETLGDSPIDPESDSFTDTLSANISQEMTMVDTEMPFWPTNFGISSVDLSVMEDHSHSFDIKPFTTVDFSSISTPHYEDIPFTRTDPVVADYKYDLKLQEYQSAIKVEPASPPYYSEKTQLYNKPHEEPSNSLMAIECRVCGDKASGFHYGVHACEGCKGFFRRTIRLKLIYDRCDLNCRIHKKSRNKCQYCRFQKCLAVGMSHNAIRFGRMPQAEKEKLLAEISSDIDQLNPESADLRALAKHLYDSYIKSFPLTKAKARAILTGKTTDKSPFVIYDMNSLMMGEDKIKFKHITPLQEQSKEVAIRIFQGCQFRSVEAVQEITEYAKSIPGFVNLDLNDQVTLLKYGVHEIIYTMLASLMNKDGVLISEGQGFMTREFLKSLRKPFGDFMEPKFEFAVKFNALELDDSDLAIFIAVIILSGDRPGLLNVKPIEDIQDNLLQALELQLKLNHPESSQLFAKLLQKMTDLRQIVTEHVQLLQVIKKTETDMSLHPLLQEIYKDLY
Chain of UniProt Q03181 (Q03181 whole entry, looked up): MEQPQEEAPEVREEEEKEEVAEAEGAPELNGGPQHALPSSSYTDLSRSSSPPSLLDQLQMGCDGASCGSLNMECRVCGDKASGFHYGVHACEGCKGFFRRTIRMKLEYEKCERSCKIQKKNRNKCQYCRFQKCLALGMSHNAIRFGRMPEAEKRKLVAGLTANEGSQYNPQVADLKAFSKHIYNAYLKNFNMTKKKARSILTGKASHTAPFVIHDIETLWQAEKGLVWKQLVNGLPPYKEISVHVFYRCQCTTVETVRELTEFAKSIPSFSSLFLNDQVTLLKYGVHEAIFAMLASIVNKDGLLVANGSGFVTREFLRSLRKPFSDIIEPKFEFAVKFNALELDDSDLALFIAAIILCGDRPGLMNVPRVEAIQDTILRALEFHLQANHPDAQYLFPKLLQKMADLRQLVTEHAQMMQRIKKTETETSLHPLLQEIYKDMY
Chain of UniProt P10635 (P10635 whole entry, looked up): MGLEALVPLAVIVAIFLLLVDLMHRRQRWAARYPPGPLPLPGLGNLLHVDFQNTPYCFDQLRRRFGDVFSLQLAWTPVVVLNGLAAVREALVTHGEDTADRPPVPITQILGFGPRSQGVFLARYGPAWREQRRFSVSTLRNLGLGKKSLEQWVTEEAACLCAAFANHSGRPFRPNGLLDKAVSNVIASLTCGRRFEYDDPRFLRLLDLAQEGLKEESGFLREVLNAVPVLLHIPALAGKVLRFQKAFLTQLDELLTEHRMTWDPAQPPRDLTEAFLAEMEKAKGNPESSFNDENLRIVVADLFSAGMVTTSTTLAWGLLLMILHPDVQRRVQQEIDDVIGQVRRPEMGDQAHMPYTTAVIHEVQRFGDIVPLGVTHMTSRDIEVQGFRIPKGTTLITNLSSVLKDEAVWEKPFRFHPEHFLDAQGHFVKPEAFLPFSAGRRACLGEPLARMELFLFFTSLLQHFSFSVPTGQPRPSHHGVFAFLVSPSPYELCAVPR
Chain of UniProt P08684 (P08684 whole entry, looked up): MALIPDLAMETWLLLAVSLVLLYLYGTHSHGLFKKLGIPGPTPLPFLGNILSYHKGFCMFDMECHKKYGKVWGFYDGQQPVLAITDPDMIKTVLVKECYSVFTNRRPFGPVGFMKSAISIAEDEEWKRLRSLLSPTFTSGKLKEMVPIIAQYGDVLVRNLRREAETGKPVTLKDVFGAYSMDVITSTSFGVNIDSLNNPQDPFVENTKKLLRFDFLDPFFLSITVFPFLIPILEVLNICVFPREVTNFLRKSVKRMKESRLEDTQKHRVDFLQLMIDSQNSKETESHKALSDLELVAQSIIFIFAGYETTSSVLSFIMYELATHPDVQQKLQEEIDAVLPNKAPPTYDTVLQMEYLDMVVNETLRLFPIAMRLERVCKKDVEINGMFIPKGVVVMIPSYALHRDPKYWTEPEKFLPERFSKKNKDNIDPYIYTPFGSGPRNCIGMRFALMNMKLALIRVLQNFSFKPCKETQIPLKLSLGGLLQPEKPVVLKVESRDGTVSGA

For `CC1=CC(=O)NS(=O)(=O)O1`, which activity change, negative = inhibition [1] is on record?
The activity change, negative = inhibition was inconclusive: 20.1%.

And the Potency [2]?
Its Potency is “inactive”.

What about the activation [3] of the same compound?
The activation was inconclusive: -22.6%.

For `CCCCO`, which Potency [4] is on record?
Its Potency is inconclusive [activator, full curve, poor fit].

What about the activity change, negative = inhibition [5] of the same compound?
Its activity change, negative = inhibition is inconclusive: -25.4%.

And the Potency [2]?
Its Potency is “inactive”.

And the activation [6]?
Its activation is inconclusive: 8%.

For `N[C@H](CC(=O)O)C(=O)O`, which Potency [4] is on record?
The Potency was “inactive”.

With `C[N+]12CCC(CC1)C(OC(=O)C(O)(c1ccccc1)c1ccccc1)C2` (stereo not given) as the compound, how does the Potency [7] read?
The Potency was “inactive”.

And the Potency [8]?
Its Potency is “inactive”.

What about the Potency [9] of the same compound?
The Potency was “inactive”.

For `Cc1c(F)c(N2CCNC(C)C2)cc2c1c(=O)c(C(=O)O)cn2C1CC1` (stereo not given), which Potency [7] is on record?
Its Potency is “inactive”.

And the Potency [8]?
Its Potency is “inactive”.

What about the Potency [10] of the same compound?
Its Potency is “inactive”.

And the Potency [11]?
The Potency was “inactive”.

What about the Potency [12] of the same compound?
Its Potency is “inactive”.

Which activity change, negative = inhibition [13] does the source give for `Cc1ccccc1OCC(O)CO` (stereo not given) here?
The activity change, negative = inhibition was inconclusive: 8.93%.

And the Potency [12]?
Its Potency is “inactive”.

Which max response [14] does the source give for `C(=C\c1ccncc1)/c1ccccc1` here?
The max response was inactive: 1.05% and inactive: -0.436%.

Which Potency [15] does the source give for `Cc1c(C)c2c(c(C)c1O)CC[C@@](C)(CCC[C@H](C)CCC[C@H](C)CCCC(C)C)O2` here?
Its Potency is inconclusive [inhibitor, full curve].

With `CCC(NC(C)C)C(O)c1ccc(O)c(O)c1` (stereo not given) as the compound, how does the Potency [16] read?
The Potency was active: 12.6 µM.

And the Potency [14]?
The Potency was inconclusive [inhibitor, partial curve].

With `CC(C)C(=O)c1c(C(C)C)nn2ccccc12` as the compound, how does the activity change, negative = inhibition [17] read?
The activity change, negative = inhibition was inconclusive: 8.79% [phenotype inactive].

And the activity change, negative = inhibition [13]?
The activity change, negative = inhibition was inconclusive: -0.449%.

And the Potency [16]?
Its Potency is inconclusive [inhibitor, single point].

What about the Potency [11] of the same compound?
The Potency was “inactive”.

Which activity change, negative = inhibition [17] does the source give for `C1CCc2nnnn2CC1` here?
Its activity change, negative = inhibition is inconclusive: -18.5% [phenotype inactive].

What about the Potency [13] of the same compound?
Its Potency is “inactive”.

And the Potency [16]?
Its Potency is “inactive”.

What about the Potency [14] of the same compound?
Its Potency is inconclusive [inhibitor, single point].

For `COc1c(N2C[C@@H]3CCCN[C@H]3C2)c(F)cc2c(=O)c(C(=O)O)cn(C3CC3)c12`, which Potency [10] is on record?
Its Potency is “inactive”.

Which activity change, negative = inhibition [17] does the source give for `CN=C(NC#N)NCCSCc1nc[nH]c1C` here?
Its activity change, negative = inhibition is inconclusive: -18.6% [phenotype inactive].

And the activity change, negative = inhibition [13]?
Its activity change, negative = inhibition is inconclusive: -1.48%.

And the Potency [3]?
Its Potency is “inactive”.

What about the activity change, negative = cytotoxic [18] of the same compound?
The activity change, negative = cytotoxic was inconclusive: -33.1% [cytotoxic].

Which Potency [8] does the source give for `O=C(O)[C@H](O)c1ccccc1` here?
Its Potency is “inactive”.

What about the Potency [10] of the same compound?
The Potency was inconclusive [cytotoxic, partial curve, poor fit].

And the Potency [11]?
Its Potency is inconclusive [cytotoxic, single point].

For `CCCCCCCCCCCCCCCC(=O)O`, which Potency [1] is on record?
Its Potency is “inactive”.

And the Potency [3]?
Its Potency is “inactive”.

And the Potency [6]?
The Potency was “inactive”.

And the Potency [7]?
The Potency was “inactive”.

What about the Potency [18] of the same compound?
Its Potency is “inactive”.

What about the Potency [19] of the same compound?
Its Potency is inconclusive [falling, single point].

With `CN(C)C(=O)Oc1ccc[n+](C)c1` as the compound, how does the activity change, negative = inhibition [17] read?
The activity change, negative = inhibition was inconclusive: -10.8% [phenotype inactive].

And the Potency [16]?
The Potency was “inactive”.

And the Potency [8]?
Its Potency is “inactive”.

What about the Potency [11] of the same compound?
Its Potency is “inactive”.

And the Potency [12]?
The Potency was “inactive”.

For `CC(C)(Oc1ccc(Cl)cc1)C(=O)O`, which activity change, negative = inhibition [13] is on record?
Its activity change, negative = inhibition is inconclusive: 5.53% and inconclusive: 8.06%.

And the Potency [5]?
The Potency was inconclusive [side channel, rising, single point].

What about the Potency [3] of the same compound?
The Potency was “inactive”.

What about the Potency [8] of the same compound?
The Potency was “inactive”.

And the Potency [18]?
Its Potency is “inactive”.

Which Potency [20] does the source give for `O=C(c1cc2ccccc2o1)N1CCN(Cc2ccccc2)CC1` here?
Its Potency is inconclusive [inhibitor, single point].
